According to the supplement of paper PMC11417369:
The list shows a part of the results.

What follows are sequences tested on PfAP2-HC AP2 domain (GST-tagged) (assay: gcPBM binding intensity (ln(normalized median fluorescence intensity)); higher = stronger DNA binding).
Outline: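 The binding buffer was 1× PBS containing 1% milk, 0.2 mg/ml BSA, 0.5% salmon testes DNA and 0.03% Triton X-100. In it, GST-tagged P. falciparum DNA-binding domains expressed in E. coli were applied for 1 h to an Agilent 4 × 180k array of primer-extended double-stranded 36-bp intergenic genomic probes plus negative controls. Binding intensity, read with Alexa488 anti-GST antibody and a 488 nm scan, is the highest Masliner-normalised natural-log median intensity across replicate spots of either probe orientation.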

Sequence | gcPBM binding intensity (ln)
GTTCTTTCAAATTATACACACCAAAAAAAAAAAAAA [CACACA_site5660] | 9.51
TGATCAAGTAAGAAAAGTACAAAAAAAGTAAAAAAT [XGTACX_site6529] | 9.73
ATAAGTTTTTATTTTCTGCACTGTCGAATAATAGTT | 9.61
GCGTGTGTACAATGAGTGCATATCTAAAGGGAAGAT | 10.1
GATATGTTTTATTATGTTGATGATAACAGGTAGTTT [CACACA_negctrl_site356] | 9.68
AAAAAATATATATATATATATATGTAATATTTTTTT [XGTACX_negctrl_site439] | 9.58
TGGCAAAATAGGCACACACACATATACAGATATATT [CACACA_site4727] | 10.3
TCAATGAAATTAATATGTACATATTTTTATATAGTA [XGTACX_site7955] | 9.48
AAAACTATAAAAATTTTACACACTGTTTTTAAATAA [CACACA_site3667] | 9.57
TATATTATAATATTCACACACTAACGTAAATCATTG [CACACA_site7318] | 9.78
ATCTCTTACATATTCACACACATATAAATAACTACA [CACACA_site6816] | 9.96
ATTAATAATTATTATGGTACACATGTAACTACTCTC [XGTACX_site198] | 9.71
ATATGATAGTTTATATGTACATAAATAAATACATAC [XGTACX_site2917] | 9.88
AAAGAAAAAAAATAATGTACATATGTATTTGAGAAA [XGTACX_site3571] | 9.92
TTCTAAAATTATATAGTGCAATTATTTTATTTTTCT | 9.59
AAAAAAATAAAACACATACATATATGTATATATATA [GTGCAC_negctrl_site390] | 9.76
TAAATATATATATAAGTGCATTATATATATATATAA | 9.63
CTATATAAAAAAATTGCACACATAAATATATACATA [CACACA_site8325] | 9.8
ATAAATCCCAAAACCTTGCAAGACAACGTTTGATCA [CACACA_negctrl_site1327] | 9.44
TGTAGAAGAACCCATGCATGCAGTATGAAAAAAAAA [TGCATGCA_site907] | 9.53
AAAAAAAGAAAAAAACGTACATGAAAATTTTTTGTT [XGTACX_site5135] | 9.69
TTATGTATTTATTTATGTACTAATTGTATGCATATT [XGTACX_site6436] | 9.81
CATATACATAGACACACACACACATAAATAAATATA [CACACA_site6749] | 10.4

Sequence | gcPBM binding intensity (ln)
ATACTTTATAAATACTAAAGTGTATTTTGTAATATA [CACACA_negctrl_site1710] | 9.43
ATTTGTATATATAATTGTACGCATATTCTATACGAT [XGTACX_site7367] | 9.73
TAAGTGATCGCATAATGTACATATTATTTATTATTT [XGTACX_site3061] | 9.75
TACATTTAAAAAAAAACACACATATTTATATTTATA [CACACA_site7236] | 9.52
GGAAGGATATAACATACACACACACCCATATATATA [CACACA_site9376] | 10.3
ATAAATATGGAGCACACACACATAAACATACAGATA [CACACA_site4395] | 10.5
TACTTTCACATTAAATGTACGTATAGTTTCATTCTT [XGTACX_site8528] | 9.82
ATATTAAAAATATATACACACATATATATAAATATA [CACACA_site2257] | 9.87
TATATTTAAGTACATAAATAAGCCCATTTACATACA [CACACA_negctrl_site1224] | 9.37
TTTGGAGAATTCATAGTGCATTTATTTATTGTTAAT | 9.6
ACGTTAGGCTTATTTGCACACTTGTATTATAATTTT [CACACA_site1317] | 10
AAAAATATGAAAGTAACTAAGTTGTTATTGATAACA [CACACA_negctrl_site1608] | 9.57
ATATTATCACAAGGTGGTACACAAAAAAAAAAAAAA [XGTACX_site8224] | 9.52
ATATATAATTATTGAAGTACTTGTTCATAAAATGGT [XGTACX_site5656] | 9.5
TATATGAGCATAAAGACACACAAATAAAACCAAACA [CACACA_site3856] | 9.98
AAAATAAAATGAAAACGTACATGATAAATTTTAATT [XGTACX_site4199] | 9.76
ATATTATAAATATAATGTACGTTTTAATTTCATGTT [XGTACX_site3557] | 9.61
TACTACACACATTCATGTACTTGATAAATTAATGAT [XGTACX_site6444] | 9.76
ATAACTAATATGAAATGTACCCATCAAAGTGTGCAT [XGTACX_site4463] | 9.68
TAATTTGTTATTTATTGTACAAACATTATATGTTAA [XGTACX_site6637] | 9.57
AAAATTAAAATACGTACACACCTTATCTTTTTGGCT [CACACA_site4311] | 9.79
AGAACAATTCTGTGGTGTACCAAAAAAAATTTAATT [XGTACX_site8082] | 9.8
TAAATGAATTTTACTATACACACGTATACATTTGTA [CACACA_site1210] | 9.82

Sequence | gcPBM binding intensity (ln)
AAAATAAATAAATATACACACCATATTTATATTTTT [CACACA_site7361] | 9.79
ATATTTAAATTTTGCACACGCATATGAAATTAGGAC [CACACA_site1035] | 9.85
ATTTTGCCTGACCCATGTACATATTATTTTTTGCAT [XGTACX_site2258] | 10.5
CTATGAATAGGAAAAAGTACTAAACCTTTATATATA [XGTACX_site5022] | 9.49
CACATAAAAATTGTGTTGCACTTTTATTCTTATATC | 9.89
AGTAGAATATCCCCTACACACCCAAATAATTTACAA [CACACA_site8339] | 10.3
TTTATATATTTTAGGTGTACATAAATTTTTATATAT [XGTACX_site5597] | 9.63
AACTTACTTGGACATACACACATATATATATATATA [CACACA_site2978] | 9.92
TCAAATATTCATAAATGTACATTTATTTTTCTCCTT [XGTACX_site5827] | 9.72
TAACTTAATATTAATGCACACAATTTATATATATAT [CACACA_site3903] | 9.78
GAAACATACATTTTTTGTCCGTAAGTATTATAATAA [XGTACX_site3273] | 9.57
ATACATCAAGGACACACACACACACCCACACCCACA [CACACA_site8013] | 11.1
AATGCAAAGGTGAAAGAACACACAAAAAAAAAAAAA [CACACA_site9333] | 9.58
GTGTTAAATTTTTGAACATGCAAGTTTTATTATTGA [TGCATGCA_site478] | 9.44
TTTTGTTGAAAAAAAAAAAAAAAATTAAATTAAATT [GTGCAC_negctrl_site636] | 9.15
CATAGACACGAACATACACACGGACATACATACGGA [CACACA_site8101] | 9.95
GTAACAAATTAATAGTGTACATATTTTAAAAAAATA [XGTACX_site7150] | 9.66
GTGTGCTTTTTACGAGTGCAAGTATTTTGGTGGTTA [GTGCAC_site9496] | 9.83
GTACACATATAATATACACACAACAAATATGCACAT [CACACA_site1010] | 10.1
TAATTTTTATTTATAATAATATATGACATATATCCA [XGTACX_negctrl_site359] | 9.56
ATGAACAAAATGTAATGTACGAATAATTATTCATAT [XGTACX_site4812] | 9.8
TTTTATTCCTATTTATTTATATTTTTGTCTTATATC [CACACA_negctrl_site125] | 9.88
TTAAGAATATCTACATGTACATACCAAAGAAATACA [XGTACX_site3125] | 9.56

Sequence | gcPBM binding intensity (ln)
TAATTTTTTTTTTTTTTTTTTTTTTTTTTTTTCCTT [CACACA_negctrl_site1095] | 8.98
GGAATAATATAAAACACACACATAAATATAAATATA [CACACA_site3376] | 10.7
TATAGACAAACACATACATGCATACATACATACATA [TGCATGCA_site273] | 9.75
AAAAAAAAGTTCTACACACACAAAAAAATATTTTTT [CACACA_site2309] | 10.2
AATGTCAATTTTAATAGTACACAAATATATATATAT [XGTACX_site521] | 9.59
AATGACCATTTTTAAAATTACAAATACATACAACTG [TGCATGCA_negctrl_site420] | 9.57
AAGTATTATTATAAGACACACATGTATTTAAGTATA [CACACA_site4922] | 9.9
AATACATATTCAAAGGTGCAAAATAAAAATATACAT [GTGCAC_site9743] | 9.89
TTATAATAAGATTGTTGTACTTATATTCCTTCTATA [XGTACX_site3173] | 9.64
TGTTTTGTATATATAGCATGCAGTAAGGGAAAAAAA [TGCATGCA_site652] | 9.45
TAGTTATAAGAGTTACAAAGAATACCGGAAATATAG [CACACA_negctrl_site1829] | 9.76
TCGTTTCATATTTATCATGAGATAATCACACGAACA [TGCATGCA_negctrl_site497] | 9.36
CTCCATATGAAACACACACACAAATGAAAAAAATAT [CACACA_site3018] | 11
AATTAACAAAGACACACACACACACGCACAAAAAAA [CACACA_site6388] | 10.7
TTTAAAAAAATATATACACACATATATATATATATA [CACACA_site617] | 9.68
ATAGAAATAAAATAAAATAAAAAAAAAATAATGAAA [CACACA_negctrl_site1565] | 9.77
ATATATAATAAATACACACACATGTATTTATAAATA [CACACA_site5135] | 9.9
TGAATTATAAATTATAGTACTTTATAATATGAACAT [XGTACX_site2317] | 9.55
ATATAAATAAATTAGTGAAAAAAAAAAAATTTTTTT [CACACA_negctrl_site945] | 9.48
TCTGTGCACGCATGAAGTACAAAAAAGGTTTCCAGT [XGTACX_site5049] | 9.71
